ChEMBL document CHEMBL4888484, “Replenishing the malaria drug discovery pipeline: Screening and hit evaluation of the MMV Hit Generation Library 1 (HGL1) against asexual blood stage Plasmodium falciparum ,using a nano luciferase reporter read-out” (2022)
Screen size: about 150,000 compounds; about 540 (0.36%) showed an effect of 50% or more. The list shows a part of the results.

tested on: Plasmodium falciparum; test: Primary screen in NF54 nanoGlo assay, in single point, at 2uM, 72h; a lower Z score goes with more inhibition; format: functional, Erythrocyte; conditions: timepoint 72 hour

| Compound | % Inhibition [%] | Z score |
| --- | --- | --- |
| CCOc1ccccc1C(=O)N1CCC[C@](c2nnnn2CCC(C)C)(N(C)C)C1 | -2 | 0.29 |
| COc1cccc(CNS(=O)(=O)c2ccc(CC(=O)N3CCCC3)s2)c1 | 3 | -0.65 |
| CC(C(C)S(C)(=O)=O)N(C)Cc1ccc(C(=O)O)cc1Br (configuration not stated) | -7 | 1 |
| Cc1ccc(S(=O)(=O)/N=C(\CN2CCCCC2)N2CCN(S(=O)(=O)c3ccc(C)cc3)C2)cc1 | -7 | 0.86 |
| CN(CCc1ccccc1)[C@H]1CCCN(Cc2nc3ccccc3[nH]2)C1 | -18 | 2.61 |
| CC(=O)N1CCO[C@@H](CNC(=O)c2ccc(-c3cc(N)ncn3)cc2)C1 | -4 | 0.65 |
| Cc1ncccc1-n1cccc1C(=O)NC1CCCCCC1 | 8 | -0.79 |
| O=C(CCCn1cncn1)N1C[C@@H]2CC[C@H]1CN(Cc1ccccn1)C2 | -4 | 0.7 |
| CC(C)CC(=O)N1CCN(C(=O)c2ccn(C)n2)[C@H]2CS(=O)(=O)C[C@H]21 | -5 | 0.61 |
| CN(CCCNC(=O)c1c(-c2ccccc2)cc(=O)n2c1CCC2)C1CCCCC1 | -7 | 0.86 |
| Fc1ccc(Cc2nnc3n2CCCC3)cc1 | 3 | -0.52 |
| CCn1cc(S(=O)(=O)N2CC[C@H](c3noc(-c4cnccn4)n3)C2)cn1 | -6 | 0.81 |
| Cc1c(Cl)cccc1NC(=O)CN1C(=O)NC2(CCOCC2)C1=O | -2 | 0.38 |
| Cc1ccc2nc(-c3ccc(-n4c(C)cc(=O)cc4C)cc3)sc2c1 | -13 | 1.49 |
| COC(=O)c1cc(-c2ccc3c(c2)OCO3)n[nH]1 | -15 | 2.9 |
| O=C(NCCn1c(=O)[nH]c2ccsc2c1=O)c1cc(-c2ccc(F)cc2)c[nH]1 | -4 | 0.72 |
| O=C(NCCN1CCC(CO)CC1)C1CCC1 | -13 | 1.89 |
| CC(C)(C)c1cc(CN2C(=O)C3CC=CCC3C2=O)no1 (configuration not stated) | 2 | -0.21 |
| O=C1N(CC2CCC2)CCC[C@@]12CCN(Cc1nccs1)C2 | -4 | 0.39 |
| Cc1cnc(CCNC(=O)Cc2ccccc2)n1C1CCC1 | -3 | 0.51 |
| COc1c(Cl)cc(NC(=O)NC[C@H]2CCOC2)cc1Cl | 4 | -0.48 |

| Compound | % Inhibition [%] | Z score |
| --- | --- | --- |
| CC[C@H](C)C(=O)N1CCN(Cc2cn3cc(Cl)ccc3n2)CC1 | -3 | 0.52 |
| CC(C)(C)c1coc(CNC(=O)[C@H]2CCc3nnnn3CC2)n1 | -13 | 2.1 |
| Cc1cccc(C(=O)N[C@@H](CC(C)C)c2nnc3n2CCNCC3)c1O | 2 | -0.28 |
| CO[C@@]12CC[C@@H](OCC3CC3)C[C@@H]1N(Cc1c(C)cnn1C)CC2 | -9 | 1.49 |
| CCc1noc(NC(C)=O)c1-c1ccc(C)c(S(=O)(=O)NC2CCCCC2)c1 | -10 | 1.38 |
| Cc1cnccc1CN1CCC2(CCC(=O)N([C@H]3CC[C@H](O)CC3)C2)CC1 | 6 | -0.81 |
| COc1ccc(-c2cc(C(=O)Nc3ccc(F)cc3)n3nc(C(C)(C)C)cc3n2)cc1 | 4 | -0.52 |
| CC(C)(CO)NC(=O)c1cncc(-c2ccc3c(c2)CCO3)c1 | 29 | -3.95 |
| CN(C)CCN(CC1CCCCC1)S(=O)(=O)c1cnn(C)c1 | 2 | -0.28 |
| CCn1c(C)c(-c2nc(C3CC3)no2)c(S(=O)(=O)Nc2ccccc2F)c1C | -3 | 0.43 |
| c1nn2cnnc2cc1N1CCN(Cc2csc3c2CCCC3)CC1 | -1 | 0.08 |
| O=C1NC2(CCC2)C(=O)N1Cc1nc(Cc2ccccc2)no1 | -6 | 0.84 |
| CN1CCCN(S(=O)(=O)c2ccccc2Cl)c2ccccc21 | 3 | -0.32 |
| Cc1ccc(C)c(NC(=O)C2C(=O)N[C@]34CCCCC3C2c2ccccc2O4)c1 (some centres not stated) | 3 | -0.42 |
| O=C(NCc1cncc(-c2ccsc2)c1)Nc1ccccc1C(F)(F)F | -8 | 1.22 |
| Cc1oc(-c2nc(CCCc3ccccc3)no2)cc1S(N)(=O)=O | 32 | -3.65 |
| CCCOc1ccc(-c2nsc(NC(=O)Cc3ccc(Cl)cc3)n2)cc1OC | 11 | -1.75 |
| COc1ccc(-c2cccc3c(N)ccnc23)cn1 | -11 | 1.87 |
| O=C(O)[C@H]1CCN(C(=O)c2cccnc2Oc2cccc(Br)c2)C1 | -17 | 1.66 |
| COCCN(CC(F)(F)F)C(=O)c1scnc1COC | -1 | 0.16 |
